# Source: the supplement of paper PMC11417369
# ± gives the standard deviation of the averaged measurements. The list shows a part of the results.
# Test system: PfAP2-I AP2 domain 3 (GST-tagged)
# Assay: gcPBM binding intensity (ln(normalized median fluorescence intensity)); higher = stronger DNA binding
# Procedure, shortened: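 GST-fused DNA-binding domains of P. falciparum, expressed in E. coli, were applied at about 25 μg on average for 1 h to an Agilent 4 × 180k array of primer-extended double-stranded 36-bp intergenic genomic probes and negative controls. Binding intensity is the highest Masliner-normalised natural-log median intensity across replicate spots of either probe orientation, measured with Alexa488 anti-GST antibody and a 488 nm scan.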
row,Sequence,gcPBM binding intensity (ln)
1,TAAAAATGTGGACACACACACATATTTATATTTAAT [CACACA_site6827],7.81 ± 0.18
2,AAAAAAAAAAAAAGTACACACTTTTGCGTACATGTA [CACACA_site7449],8.06 ± 0.63
3,AAAAAGTAGTAAAACAGTACAGTATTTATGCCTATT [XGTACX_site6434],7.79 ± 0.59
4,AATATATTTTTCTACCGTACATAATAAAATATATAT [XGTACX_site1777],7.95 ± 0.51
5,TATTTATTTATTTATTGTACATAAGTATATATTATA [XGTACX_site6566],7.91 ± 0.72
6,GAACCACTAAAATGAGCATGCTCATATTTACATATA [TGCATGCA_site1033],7.68 ± 0.64
7,ATTACATACACGCGCACACACAAAAAAAAAAAAAAA [CACACA_site1334],8.39 ± 0.13
8,GTACTCTTCTCCAGACTGCACTATACGACTCGTACA [GTGCAC_site9770],9.865 ± 0.049
9,ATATATATATATATATGTACTTATATATAATATAGA [XGTACX_site3488],9.05 ± 0.28
10,TGGTATGTTTTACAAAGTACCCATCGATTCTTATGT [XGTACX_site2822],7.74 ± 0.57
11,AAAAAAACATGAAACACACACAAATATTTATTTATA [CACACA_site6967],7.55 ± 0.52
12,TGTTTCCAAAAAAAAAAAAAAAAAAAAAAAAAAAAA [CACACA_negctrl_site358],8.31 ± 0.71
13,TATTATATATATAAATGTACTTATTTTAATTCCCCT [XGTACX_site8638],8.005 ± 0.049
14,TTTTGTTTATTATGATTCAAAATGATTTTATCTTTG [TGCATGCA_negctrl_site425],7.38 ± 0.67
15,AATAAATAAGCAACATGTACATACAAATATATACAT [XGTACX_site8529],7.7 ± 0.28
16,TTTAATTTTTTTAATTCACACATTATTCCATCCTTT [CACACA_site5480],7.71 ± 0.52
17,ATCTAATAAAAATACACACACATATGATTTGTGAAT [CACACA_site1867],7.5 ± 0.4
18,ATTTTCCATTGTGCTACACACAACGGTTCGCAATAA [CACACA_site2974],8.17 ± 0.59
19,TAAAAAAAATAGTCAAGTACATAAGAAGGGAAGAAA [XGTACX_site8733],7.88 ± 0.59
20,ACTAAAAGATATATAATTTCTTTCTTATTTATTTTT [CACACA_negctrl_site842],7.43 ± 0.56
21,TTATTCATATTATCATGTACTTATATATATTGTCAT [XGTACX_site2231],7.72 ± 0.55
22,AAAAATTTAAGTGGGGGTACATTTTTTTAACACCTT [XGTACX_site1093],8.65 ± 0.35

row,Sequence,gcPBM binding intensity (ln)
1,AACAAACACGGACACACACACACACTAGAATGATTA [CACACA_site5364],8.14 ± 0.28
2,ATATTTAAATGTAATACATGCAAATTTGAACATTTT [TGCATGCA_site736],7.97 ± 0.68
3,TAATATATTAACATGGGTACATATTATTTCATGTGT [XGTACX_site5985],7.71 ± 0.33
4,AAAAAAAAAAAAATCACACATATGTATTTATATATA [CACACA_site5790],7.51 ± 0.34
5,CACATATATATGTGTGCATGTTGTATTATATATTTA [TGCATGCA_site632],8.69 ± 0.46
6,ATAATTACAAAATAAACACACATATAGATTTATATG [CACACA_site6343],7.6 ± 0.45
7,TACATAATACATATAACACACACAATTATACATAAA [CACACA_site9060],7.92 ± 0.36
8,ATATAATTAAAATGCTCACACACATAAAAAAAAATT [CACACA_site2148],7.74 ± 0.51
9,GTACATATATACATTACACACGGTTTGATTTAAAAA [CACACA_site3379],7.96 ± 0.59
10,ATTTTATTTTTTAAAGGTACAGTTACAGCTTATATA [XGTACX_site7513],7.79 ± 0.34
11,TCTTTTAAAAAAAAAGGAGGAACATAAAAAGTAGAA [XGTACX_negctrl_site272],8.13 ± 0.6
12,ATAATTAACAAATACACACACACACCCCCACAAAAA [CACACA_site518],10.36 ± 0.057
13,AAATTAAAATATAATACACACATAAAAAAAAAAAAA [CACACA_site4183],8.05 ± 0.78
14,TATATATTTTTTTTTTGTACTCACAATATATGTATG [XGTACX_site8024],7.92 ± 0.39
15,AGTATTCATAAAAATACACACATGGAAAAATAAACT [CACACA_site6796],8.06 ± 0.69
16,TGTATAAGTATTAATACACACACAAAATAATAAAAA [CACACA_site9156],7.93 ± 0.64
17,TACTTACATTATTTATTTATATAAAAAGTTAATTAT [XGTACX_negctrl_site433],7.55 ± 0.3
18,TTTATTAGTAATTATACACACATATAAAATGAATAA [CACACA_site6754],7.67 ± 0.52
19,TATATTTATAGGTACACACACACATATAAATAAATA [CACACA_site6345],8.13 ± 0.18
20,ATAAAATTATATTTTGCATGCAGGCCTTTTTCTTAA [TGCATGCA_site1030],8.08 ± 1.1
21,AAAAAAAAAAAAAACACACACATATATATATATATA [CACACA_site1891],9.59 ± 0.35
22,TTCCAAACCTCATTATGGAAAATAAAAAAATAAAAA [XGTACX_negctrl_site17],7.65 ± 0.57

row,Sequence,gcPBM binding intensity (ln)
1,TTCCAAAAAGTTATTACACACATATGTGCACATATA [CACACA_site6465],10 ± 0.4
2,AGAATATTATATTATGCATGCATATAGAAAAATATA [TGCATGCA_site302],7.81 ± 0.73
3,ATAAAATATTTTTGAACATGCAGGTAAAAAATAAAA [TGCATGCA_site1019],9.78 ± 0.76
4,ACTTATAAAAACATATACCCCATCGCATTTTTTCCA [XGTACX_negctrl_site177],7.88 ± 0.75
5,TGTAATATAAAATTTTGTACTCAAAAATTTATATAT [XGTACX_site3252],7.66 ± 0.22
6,AATTTTTTATATGTCACACATTTATTATTATTATTA [CACACA_site4198],7.76 ± 0.64
7,TTTTTTTTTCTTTTCAAACACACAATTGGTATATAT [CACACA_site3321],7.88 ± 0.61
8,TGACTGTAGATATTTTGTACATAACCTAATATATAT [XGTACX_site970],7.81 ± 0.54
9,CGTATAAATATACGTGCATGTAACTTTTTCTATATT [TGCATGCA_site981],8.96 ± 0.71
10,CTATTTATTTTTGATGCATGCCAAATATAGAAAAAA [TGCATGCA_site368],8 ± 0.59
11,TAGTAGTTATCACTAACATGCAATAATATTATTTAA [TGCATGCA_site161],7.69 ± 0.68
12,TTATGTACAATTTCTTCTTTCTTTTTTCCTAAAGAC [CACACA_negctrl_site1193],7.68 ± 0.67
13,TTTTTTTTTTTTTTTTGTACACATAATATGAATAAT [XGTACX_site2661],8.14 ± 0.49
14,ATAACATATATATATACACACACATATATATATGAA [CACACA_site7983],7.92 ± 0.35
15,ATAATATAATACGAAGGTACACATTTTCTTAATATA [XGTACX_site7947],7.63 ± 0.47
16,ATATATTTTTTGAATACACACATATTATAGGTAATA [CACACA_site6709],7.76 ± 0.47
17,TATTTAAAAAGAAAAAAAAAAAAAAAAATACATATA [CACACA_negctrl_site164],7.46 ± 0.27
18,AAAAAAAAAAAATATACACACTAATATATTTTTTTA [CACACA_site4604],7.66 ± 0.2
19,TATTAAATTTATCGGAGTACATTTAAATGTATATAC [XGTACX_site7975],7.98 ± 0.48
20,TATATACGCAAACACACACACACATACACCCACATA [CACACA_site1724],8.09 ± 0.31
21,TATTACTATGTTATAACTTTTTTAAACGTGATCATA [TGCATGCA_negctrl_site128],7.49 ± 0.51
22,TATGTGTAATATTTTTGTACAGAAAAAAAAAAAAAA [XGTACX_site7075],8.17 ± 0.86

row,Sequence,gcPBM binding intensity (ln)
1,AAAAAAAAAAAAAACACACACATGCACATCATATTA [CACACA_site4467],8.58 ± 0.59
2,AAAAAAAAAATTAAAACATGCATAAATAAATATATT [TGCATGCA_site866],7.61 ± 0.82
3,TCATTTCACAGACACACACACACAATATATTTCCTT [CACACA_site9295],8.28 ± 0.58
4,ATATTTTTATTAGTAGTGCAATTTAGTGTATATATA [GTGCAC_site9542],9.71 ± 0.34
5,TTTAATCAACAAAATCTACACACTAATATGAAATAT [CACACA_site9250],7.51 ± 0.57
6,ATACACGTTTTACAATGTACAGAAAGTATACATAAT [XGTACX_site4585],7.88 ± 0.56
7,GTATTTTTTTTCTTTTGTACATATATATAAAGAATA [XGTACX_site4569],8.25 ± 0.44
8,TATTATATATATAAATGTACATATTATTTTTCTTTT [XGTACX_site8670],7.62 ± 0.56
9,AAGAATTTTCGATTTGCACACATTTGTAAAATAAAA [CACACA_site2354],9.16
10,TTTTAAAATAAAAAAATAAAAAAAGGGGAAAAAAAA [CACACA_negctrl_site847],7.92 ± 0.25
11,CATATCAAAAAAAAATGTACACGTATATACAATACA [XGTACX_site2660],7.77 ± 0.24
12,TATAATATGTTTGATGGTACACGTAAACACCTTGCA [XGTACX_site1643],7.79 ± 0.58
13,ATATACTTATATATTGCACACATCTAATATTTTGAA [CACACA_site3165],10.5 ± 0.57
14,ATAACTAAATTATATTGTACAAAATAATTATATATT [XGTACX_site1188],7.74 ± 0.53
15,AGACAATTTTTTAGTACACACATATAGATATATAAA [CACACA_site6832],8.24 ± 0.23
16,ATAATTATACAAAAGCGTACACGATATAAATCTACG [XGTACX_site8115],7.92 ± 0.28
17,CTTAAATCCATAATATGTACTTAAAAAGAAAAAATA [XGTACX_site4765],7.47 ± 0.51
18,GTATTATAAAAAGGAAGTACATATATACATATTATA [XGTACX_site1271],7.69 ± 0.47
19,ATATGAACATTAAAAAAGTAAGGTATTCTCCCCTCT [CACACA_negctrl_site1299],7.71 ± 0.54
20,TTATAAAAAAAAAAAAAAAAAAAAACCAATATAATA [CACACA_negctrl_site968],7.3 ± 0.48
21,TTTATTCTAAAATATTAAAAATGATTTGTTTTTTCA [CACACA_negctrl_site1751],7.04 ± 0.42
